# Hit rate of the full screen: of about 310,000 compounds, about 2,200 (0.71%) showed an effect of 50% or more. The effect is printed as a negative number. The list shows a part of the results.
# Molecular target: human ether-à-go-go-related gene (hERG) potassium channel (human, UniProt Q12809)
# Assay: primary screen, population patch clamp on CHO cells stably expressing hERG
# Chain of human ether-à-go-go-related gene (hERG) potassium channel (Q12809 whole entry, looked up): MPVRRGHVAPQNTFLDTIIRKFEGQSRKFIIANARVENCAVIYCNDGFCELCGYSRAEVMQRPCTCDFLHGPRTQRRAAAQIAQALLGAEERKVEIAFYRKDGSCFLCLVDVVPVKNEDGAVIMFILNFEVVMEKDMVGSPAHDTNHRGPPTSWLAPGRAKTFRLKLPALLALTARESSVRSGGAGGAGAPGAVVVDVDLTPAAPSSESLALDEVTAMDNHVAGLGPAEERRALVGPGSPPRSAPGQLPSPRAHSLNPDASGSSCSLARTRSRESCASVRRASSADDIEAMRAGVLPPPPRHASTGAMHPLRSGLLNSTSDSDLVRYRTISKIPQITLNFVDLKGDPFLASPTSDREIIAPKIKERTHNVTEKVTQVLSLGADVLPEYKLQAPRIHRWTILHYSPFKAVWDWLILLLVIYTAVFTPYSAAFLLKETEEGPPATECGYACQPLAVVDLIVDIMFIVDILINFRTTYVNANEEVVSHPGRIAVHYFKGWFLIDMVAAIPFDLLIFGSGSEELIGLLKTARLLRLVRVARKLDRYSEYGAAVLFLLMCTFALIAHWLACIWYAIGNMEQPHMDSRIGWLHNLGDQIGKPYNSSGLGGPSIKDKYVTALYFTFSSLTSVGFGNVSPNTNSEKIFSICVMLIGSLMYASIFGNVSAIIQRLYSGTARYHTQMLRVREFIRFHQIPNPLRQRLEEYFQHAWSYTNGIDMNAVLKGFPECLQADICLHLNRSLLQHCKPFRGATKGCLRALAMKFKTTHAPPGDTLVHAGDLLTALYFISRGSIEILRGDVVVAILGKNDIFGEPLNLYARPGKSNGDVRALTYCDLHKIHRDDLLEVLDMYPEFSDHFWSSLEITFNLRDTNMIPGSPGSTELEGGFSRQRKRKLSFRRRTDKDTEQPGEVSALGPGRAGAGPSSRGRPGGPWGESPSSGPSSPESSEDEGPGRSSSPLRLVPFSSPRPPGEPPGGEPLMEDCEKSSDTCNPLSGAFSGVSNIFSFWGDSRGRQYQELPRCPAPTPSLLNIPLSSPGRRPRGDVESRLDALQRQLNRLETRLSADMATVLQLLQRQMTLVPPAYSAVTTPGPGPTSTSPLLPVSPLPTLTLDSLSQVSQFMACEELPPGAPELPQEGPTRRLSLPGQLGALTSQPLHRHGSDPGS
row,SMILES,"hERG current change (%, negative = inhibition) at 1uM"
1,Cc1occc1C(=O)n1cnc2ccccc21,13%
2,CCS(=O)(=O)c1nc(S(=O)(=O)c2ccc(Cl)cc2)c(N2CCN(CCO)CC2)s1,7.45%
3,Cn1nnnc1SCC(=O)Nc1cc(S(=O)(=O)N2CCCC2)ccc1Cl,8.9%
4,O=S(=O)(c1cccc(-c2cn3ccccc3n2)c1)N1CCCCC1,14.3%
5,COC(C(=O)NC1CCCCCCC1)c1ccccc1 (stereo not shown),2.42%
6,CC(C)Oc1ccc(/C=C(\C#N)C(=O)NC2CC2)cc1,16.9%
7,O=C(CSc1nc(=O)n(CCCN2CCOCC2)c2c1CCCC2)Nc1cccc(F)c1,-10.9%
8,CCCS(=O)(=O)N1CCCC(C(=O)NC2CCCC(C)C2C)C1 (stereo not shown),10.7%
9,CCOc1ccc(S(=O)(=O)Nc2cccc(C(=O)NCC(c3ccco3)N3CCCC3)c2)cc1 (stereo not shown),4.47%
10,Cc1cccc(SCc2noc(C(=O)NC(C)C)c2C(=O)O)c1,14.3%
11,CCN(CC(O)COCc1ccc(Cl)cc1)C1CCCCC1.Cl (stereo not shown),-3.91%
12,COc1ccccc1C1=NN(C2=NN=C(N)Cc3ncnn32)C(O)(C(F)(F)F)C1 (stereo not shown),12.7%
13,O=C(Nc1cccc(Cl)c1)Nc1c[nH]c(=O)[nH]c1=O,15.3%
14,O=C(O)c1nccnc1C(=O)Nc1ccc(Oc2c(Cl)cccc2Cl)nc1,-5.67%
15,Nn1c(SCC(=O)N2CCOCC2)nnc1-c1ccccc1Cl,4.84%
16,O=C(Nc1cc([N+](=O)[O-])ccc1O)c1ccc2c(c1)C(=O)N(Cc1ccco1)C2=O,5.61%
17,Nc1c(C(=O)N/N=C/c2ccc(F)cc2)oc2nc(-c3ccccc3)cc(-c3ccco3)c12,20.7%
18,Cc1cccc(C)c1OCC(=O)Nc1ccccc1C(=O)N1CCOCC1,12.9%
19,COc1cccc(NC(=O)CCNS(=O)(=O)c2cccc3nonc23)c1,17.1%
20,CCc1ccc(OCC(=O)NCC(c2ccc(Cl)cc2)N2CCCCC2)cc1 (stereo not shown),14.3%
21,O=c1[nH]n(CC2COC3(CCCCC3)O2)c(=O)c2ccccc12 (stereo not shown),2.54%
22,CCc1ccccc1NC(=O)C1CCN(S(C)(=O)=O)CC1,12.3%
23,c1ccc(Cc2noc(CN3CCC(CN4CCOCC4)CC3)n2)cc1,15.3%

row,SMILES,"hERG current change (%, negative = inhibition) at 1uM"
1,COc1ccc(N2CCN(C(=O)c3cc(=O)c4cc(Cl)ccc4o3)CC2)cc1,-81.5%
2,O=C(CSc1ccc(Cl)cc1)Nc1ccccc1N1CCN(C(=O)c2ccccc2)CC1,-10.6%
3,CCOc1ccc(NC(=O)CN(C)C(=O)c2c(C)nn(-c3ccc(F)cc3)c2Cl)cc1OCC,8.08%
4,CN1CCN(S(=O)(=O)c2ccc(NC(=O)c3ccc(F)cc3)cc2)CC1,0.271%
5,O=c1cc(CN2CCOCC2)c2ccc(O)c(O)c2o1,11.1%
6,CN(C)/C=C/C(=O)c1cc(F)cc(C(F)(F)F)c1,15.7%
7,CCN(CC)S(=O)(=O)c1ccc(N2CC(C(=O)NCc3cccnc3)CC2=O)cc1 (stereo not shown),10.2%
8,NC(=S)c1cc2cc(Cl)ccc2oc1=O,13.8%
9,COc1ccccc1/C=N/NC(=O)C(NC(=O)c1ccccc1)=C(C)C,-4.99%
10,O=C1CC(NNc2ccccc2)C(=O)N1c1ccccc1 (stereo not shown),14.6%
11,CCn1c(SCC(=O)c2ccc(OC)cc2)nnc1C(C)NC(=O)c1ccc(OC)cc1 (stereo not shown),6.76%
12,CNS(=O)(=O)c1cnccc1N1CCN(c2cccc(C)c2)CC1,4.64%
13,Cc1occc1C(=O)Nc1cnn(CCCC(=O)O)c1,12.7%
14,COc1ccc(OC)c(-n2cnnn2)c1,-1.24%
15,COc1cccc(C(=O)NC(=S)Nc2ccc(Cl)cc2C(=O)O)c1,13.9%
16,O=C(Cn1cc(C(F)(F)F)cc(Cl)c1=O)NCCc1ccccc1,7.4%
17,CC(C)(C)OC(=O)CNC(=O)c1[nH]cnc1C(=O)NCCCCCNC(=O)OC(C)(C)C,-5.09%
18,Cc1ccc(S(=O)(=O)N2CCCOC2)cc1,7.03%
19,COc1ccc(CC(=O)NNC(=O)COc2ccc3ccccc3c2)cc1,10.6%
20,CC(=O)Nc1cc2c(cc1Br)OCCO2,11.3%
21,Cc1onc(-c2ccccc2)c1-c1csc(COc2ccccc2)n1,15.1%
22,C=CCNC(=O)CSc1nnc(C(CC)N(C)C)n1C1CCCCC1 (stereo not shown),8.12%
23,CCCC(=O)Nc1c(-c2ccccc2)c(=O)c(C)nn1-c1ccc(Cl)cc1,9.07%

row,SMILES,"hERG current change (%, negative = inhibition) at 1uM"
1,O=C(Nc1ccc(N2CCOCC2)cc1)c1ccc([N+](=O)[O-])cc1,20.7%
2,N#CCC(=O)N/N=C/c1ccc(Sc2nc3ccccc3s2)o1,9.58%
3,COc1ccc(Cc2nnc(SCc3nc4ccccc4c(=O)[nH]3)n2C)cc1,10.7%
4,COC(=O)C1=C(c2cccc(OCc3ccccc3)c2)C[C@@H]2CC[C@H]1N2C(=O)NNCc1ccccc1,12.4%
5,CCOC(=O)Cc1nnc(NC(=O)CCc2ccccc2)s1,12.7%
6,COc1ccc(-c2nc(N)ncc2Oc2ccccc2Br)c(O)c1,-1.62%
7,NS(=O)(=O)c1ccc(CCNC(=O)COC(=O)C2CCN(c3ccc(C(F)(F)F)cn3)CC2)cc1,-2.66%
8,Cn1c(=O)c2c(nc(NCCOc3ccc(C(C)(C)C)cc3)n2C)n(C)c1=O,0.529%
9,O=C(COc1ccc(Cl)cc1)Nc1ncccn1,-5.21%
10,CNC(=O)C(=O)NCC1OCCN1S(=O)(=O)c1ccc(OC)c(OC)c1 (stereo not shown),12.9%
11,COc1nnc(-c2ccc(N3CCCCC3)c(N)c2)c2ccccc12,5.64%
12,CC(=O)c1c(O)cc(C(C)C)n(-c2ccccc2)c1=O,4.81%
13,COc1ccc2c(c1O)-c1ccccc1CCN(C)C2.Cl,5.61%
14,CC1CCCCC1NC(=O)C1CCN(S(=O)(=O)c2ccc3c(c2)CCC(=O)N3)CC1 (stereo not shown),10.7%
15,COc1ccc(-c2cn(Cc3ccc(C(N)=O)cc3)c(CCN)n2)cc1,-17.7%
16,Cc1nc(N/N=C/c2cccc(F)c2)cc(N2CCOCC2)n1,-8.91%
17,Cn1c(-c2ccccc2)cnc1SCC(N)=O,18.8%
18,Cc1csc(Nc2ccccc2C(F)(F)F)n1,13.1%
19,Cn1nnnc1SCC(=O)N1c2ccccc2Sc2ccc(Cl)cc21,-3.03%
20,COCCNC(=O)COC(=O)c1cccnc1SC,12.8%
21,Cc1cc(C)n(C(=O)CCC(=O)NCc2ccccc2)n1,7.58%
22,CC(=O)c1sc(NC(=O)C2=NN(c3ccccc3)C(=O)CC2)nc1C,10.3%
23,CCCN(CC(=O)Nc1ccccc1OC)C(=O)c1cnc(Cl)c(Cl)c1,13.7%

row,SMILES,"hERG current change (%, negative = inhibition) at 1uM"
1,CCOC(=O)CSC1=C(C#N)C(c2ccc(Cl)cc2)CC(=O)N1 (stereo not shown),2.14%
2,CCC(C)(C)NC(=O)C(c1ccc(O)cc1)N(CCOC)C(=O)CCC(=O)Nc1nccs1 (stereo not shown),15.2%
3,COCCN1C(=O)c2cc(C(=O)Nc3cccc(F)c3)ccc2C1Nc1cccc(F)c1 (stereo not shown),9.68%
4,Cc1ccc(OCCOC(=O)Nc2ccccc2)cc1,8.88%
5,C=C(C)C(C)(C#CCN1CCCC1)OC(C)=O (stereo not shown),-3.09%
6,CCNc1ccc(C(=O)OCC(=O)N(Cc2ccccc2)C(C)(C)C)cc1[N+](=O)[O-],7.38%
7,CN1CCN(CCC(=O)Nc2cccc(Br)c2)CC1,7.14%
8,Cc1nc(NC(=O)C2CC2)sc1C(=O)Nc1cccc(Cl)c1,16.5%
9,Cc1cccc(C)c1NC(=S)N(CCN1CCCCCC1)Cc1ccco1,0.0867%
10,CC1=C(C(N)=O)C(c2cccs2)NC(=S)N1 (stereo not shown),16.1%
11,CC1CCC/C=C/C(=O)c2c(O)cc(O)cc2CC(=O)O1 (stereo not shown),6.8%
12,O=C(NCC1CCCO1)C(=O)N/N=C/c1ccc(O)c(Cl)c1 (stereo not shown),10.5%
13,COc1ccccc1C(=O)Nc1nc(N)n(-c2ccccc2)n1,17.5%
14,Cc1cccc(-n2ccc(=O)c(C(=O)Nc3ccc(S(=O)(=O)Nc4nccs4)cc3)n2)c1,12.2%
15,Cc1cc(-n2cnnn2)ccc1C(C)C,-3.31%
16,COc1ccc2cc(CN(CC3CCCO3)C(=O)Nc3ccccc3)c(=O)[nH]c2c1 (stereo not shown),7.36%
17,O=C(CCCOc1ccccc1)N1CCc2ccccc2C1,9.63%
18,Cc1ccc2c(CC(=O)OC(C)C(=O)Nc3ncc(Cl)cc3Cl)coc2c1 (stereo not shown),11.6%
19,COc1ccc(C(C)=O)cc1CC(=O)Nc1ccccc1-c1ccccc1,16.8%
20,O=C(CN1CCCCCC1)Nc1cccc(NC(=O)CN2CCCCCC2)c1,7.91%
21,O=C1C(=Cc2cccn2-c2ccc(O)cc2)C(=O)c2ccccc21,6.18%
22,COc1ccc(NC(=O)C2CCCN(S(=O)(=O)c3c(C)[nH]c(=O)[nH]c3=O)C2)cc1OC (stereo not shown),19%

# Source: paper PMC4336329 (PLoS ONE, 2015)
